Out of some 48,000 compounds screened, about 550 (1.1%) were called active. Another 4% or so got no clear call; they are omitted. No stated cut-off is given here; in the data, active means potency below about 15 µM; inconclusive means mostly about 16 µM to 33 µM; inactive means weaker than that. The list shows a part of the results.
The molecules below were run against Lysosomal acid glucosylceramidase (Homo sapiens) (UniProt P04062) (assay: Glucocerebrosidase). Conditions: purified enzyme, resorufin glucoside fluorescence (screen aimed at inhibitors), 20 min; series mostly up to 77 µM.
Sequence of UniProt P04062 (P04062 whole entry, looked up): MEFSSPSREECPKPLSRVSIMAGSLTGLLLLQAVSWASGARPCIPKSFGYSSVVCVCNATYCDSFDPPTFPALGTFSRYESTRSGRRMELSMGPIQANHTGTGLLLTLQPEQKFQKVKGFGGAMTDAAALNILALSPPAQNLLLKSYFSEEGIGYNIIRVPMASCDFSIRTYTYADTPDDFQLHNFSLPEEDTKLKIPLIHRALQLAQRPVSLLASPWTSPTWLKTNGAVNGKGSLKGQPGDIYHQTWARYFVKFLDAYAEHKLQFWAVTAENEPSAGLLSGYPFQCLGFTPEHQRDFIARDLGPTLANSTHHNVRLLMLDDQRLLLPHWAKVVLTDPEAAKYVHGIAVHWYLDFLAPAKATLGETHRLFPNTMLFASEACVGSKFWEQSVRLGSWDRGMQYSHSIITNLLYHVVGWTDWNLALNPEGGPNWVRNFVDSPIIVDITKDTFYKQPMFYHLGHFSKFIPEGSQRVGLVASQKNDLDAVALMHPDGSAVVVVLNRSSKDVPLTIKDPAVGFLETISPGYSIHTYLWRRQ
In short: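 Compounds titrated against 0.2 nM normal enzyme, 30 uM resorufin beta-D-glucopyranoside substrate, citrate/phosphate buffer with taurocholate and tween-20, pH 5.9. Reaction ran 20 min at room temperature; fluorescence (Ex 548/Em 600) gave AC50.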
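Further: the screen sought inhibitors.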
Potency means the concentration at half of the fitted maximal effect.

Potency, inactive:
O=S(=O)(c1cccs1)N1CCc2ccccc21 > 76.9 µM, COc1cccc(C2C(C#N)=C(N)OC3=C2C(=O)CCC3)c1OC(=O)c1ccco1 (stereo not drawn) > 76.9 µM, Cc1cccc2cc(CN(Cc3ccc(F)cc3)Cc3nnnn3C3CCCC3)c(=O)[nH]c12 > 76.9 µM, CCCCN(CCCNC(=O)C1CCCN(S(=O)(=O)CC)C1)Cc1ccccc1 (stereo not drawn) > 76.9 µM, CCN(CC)Cc1c(C(=O)OC)nnn1-c1nonc1N > 76.9 µM, CN=C(Nc1cc(C)nn1-c1ccccc1)c1ccc(F)cc1 > 76.9 µM, COc1cc2ccccc2cc1C(=O)OCC(=O)N1CCOCC1 > 76.9 µM, CCN(CC)CCCN1C(=O)C(O)=C(C(=O)c2ccco2)C1c1ccc(C)o1 (stereo not drawn) > 76.9 µM, O=C(NC1=NCCS1)C12CC3CC(C1)CC(C(=O)NC1=NCCS1)(C3)C2 > 76.9 µM, c1ccc(-n2cnc3cc(NCc4ccncc4)ccc32)cc1 > 76.9 µM, CCN(CC)CCCNC(=O)c1cc(-c2ccc(Cl)c(Cl)c2)on1 > 76.9 µM, CCOC(=O)Cn1c(=O)c2c(nc3n2CCCCN3c2ccc(OCC)cc2)n(C)c1=O > 76.9 µM, O=C(NCc1ccco1)c1cc2sccc2n1Cc1ccccc1 > 76.9 µM, CCOC(=O)CC(N)c1ccc(OC)cc1 (stereo not drawn) > 76.9 µM, COc1ccc(COC(=O)c2ccc(N3CCCC3=O)cc2)cc1F > 76.9 µM, Cn1cnnc1SCCn1c(N2CCCCC2)nc2c1c(=O)[nH]c(=O)n2C > 76.9 µM, CCNC(=O)CSc1nc2ccccc2c(=O)n1CCCOC(C)C > 76.9 µM, COc1cccc(-c2nnc(SCc3nc4ccccc4[nH]3)n2N)c1 > 76.9 µM, CCOC(=O)c1c(NC(C)=O)sc2c1CCCNC2=O > 76.9 µM, O=C(CN1C(=O)COc2ccccc21)c1ccc(Cl)cc1 > 76.9 µM, C=CCn1c(N)c(C(=O)OC(C)CC)c2nc3ccccc3nc21 (stereo not drawn) > 76.9 µM, CCCn1c(SCC(=O)OCc2ccccc2)nc2c1c(=O)n(C)c(=O)n2C > 76.9 µM, COc1ccc(OC)c(NC(=O)C2CCCCC2C(=O)O)c1 (stereo not drawn) > 76.9 µM, COn1c(SCC(N)=O)nc2ccccc2c1=O > 76.9 µM, Clc1c(-c2nnc3n2CCCCC3)sc2ccccc12 > 76.9 µM, CCOc1ccc2[nH]cc(C(=O)O)c(=O)c2c1 > 76.9 µM, COc1ccc(OC)c(CNC(=O)C2CCN(S(=O)(=O)N3CCCC3)CC2)c1 > 76.9 µM, CCCCCCn1c(CN2CCCCC2)nc2c1c(=O)n(C)c(=O)n2C > 76.9 µM, CCOC(=O)C1=C(c2ccccc2)N2CCN=C2S1 > 76.9 µM, COc1ccc(F)c(C2C(C#N)=C(N)Oc3n[nH]c(C(C)(C)C)c32)c1 (stereo not drawn) > 76.9 µM, Cc1ccccc1OCC1CN(CN2CCOCC2)C(=O)O1 (stereo not drawn) > 76.9 µM, CC(C)n1c(N2CCN(C(=O)c3cccs3)CC2)nc2ccccc21 > 76.9 µM, CCOC(=O)c1oc2cccc(OC(C)=O)c2c1C > 76.9 µM, COc1cccc(-n2c(SCC(=O)NC(C)(C)C)nnc2-c2ccoc2C)c1 > 76.9 µM, CC(C)OC(=O)CSc1nnc(-c2cnccn2)n1-c1ccccc1 > 76.9 µM, O=S(=O)(c1ccc(Oc2ccccc2)cc1)N1CCOCC1 > 76.9 µM, CCN1CCCC1CNS(=O)(=O)c1cc(Br)cc2c1N(C(=O)C1CC1)CC2 (stereo not drawn) > 76.9 µM, NC(=O)c1c(NC(=O)CN2CCCC2)sc2c1CCCC2 > 76.9 µM, O=c1n(Cc2ccccc2Cl)c2sc3c(c2c2ncnn12)CCCC3 > 76.9 µM, O=c1oc2ccccc2cc1C1=Nn2c(nnc2-c2cccnc2)SC1 > 76.9 µM, CC(=O)Nc1ccn(Cc2c(F)cccc2Cl)n1 > 76.9 µM, O=C(O)C1CCCCC1C(=O)Nc1cnn(Cc2ccccc2)c1 (stereo not drawn) > 76.9 µM, CS(=O)(=O)N1CCN(C(=O)C(Sc2ccccc2)c2ccccc2)CC1 (stereo not drawn) > 76.9 µM, Cc1ccc(S(=O)(=O)C2(C(=O)N3CCCCC3C)CC2)cc1 (stereo not drawn) > 76.9 µM, CCOC(=O)c1c(C)oc2ccc(O)c(CN3CCCCC3)c12 > 76.9 µM, O=C1NC2=C(C(=O)c3ccccc32)C(c2ccccc2)N1 (stereo not drawn) > 76.9 µM, COC(=O)C1=C(N)Oc2cc(C)n(C)c(=O)c2C1c1ccc(Cl)c(Cl)c1 (stereo not drawn) > 76.9 µM, [O-][N+]12CC[N+]([O-])(CC1)c1ccccc12 > 76.9 µM, Cc1c(C(Nc2ccccn2)c2ccc(Cl)cc2)c(=O)n(-c2ccccc2)n1C (stereo not drawn) > 76.9 µM, COC(=O)C1CCN(c2cc(=O)n(Cc3ccc(F)cc3)c(=O)[nH]2)CC1 > 76.9 µM, O=C(Nc1ccc(C(=O)N2CCOCC2)cc1)c1cccs1 > 76.9 µM, COc1ccc(-c2nc(SC)n(C)c(=O)c2C#N)cc1OC > 76.9 µM, CCN1CCN(Cc2cc(=O)oc3ccc(Cl)cc23)CC1 > 76.9 µM, Cc1ccnc(NC(=O)Nc2cccc(F)c2)c1 > 76.9 µM, c1ccc(-c2nc(NCc3cccnc3)c3oc4ccccc4c3n2)cc1 > 76.9 µM, CC(c1ccco1)N(C(=O)c1ccc(Cl)s1)c1ccccn1 (stereo not drawn) > 76.9 µM, Cc1ccc(S(=O)(=O)N2CCN(C(=O)N3CCOCC3)C2C)cc1 (stereo not drawn) > 76.9 µM, CCC(C)(C)NC(=O)c1ccc2c(c1)N(CC(=O)OC)C(=O)C(C)(C)O2 > 76.9 µM, OCCNCC1(O)C2CC3CC(C2)CC1C3 (stereo not drawn) > 76.9 µM, CC(C)Cn1cnc2c(N)nc3ccccc3c21 > 76.9 µM, C#CCNc1c(C)c(C)nc2ncnn12 > 76.9 µM, Cc1nc2ccc(C(=O)N3CCSCC3)cc2s1 > 76.9 µM, CCOC(=O)C(Cc1ccccc1)NC(=O)Cn1nnc(-c2ccccc2)n1 (stereo not drawn) > 76.9 µM, O=C(c1ccccc1)N(Cc1cccs1)C1CCS(=O)(=O)C1 (stereo not drawn) > 76.9 µM, CCOC(=O)c1c(C)c(C(=O)N2CCN(C(=O)c3ccco3)CC2)c(C)n1C > 76.9 µM, CCC(=O)Nc1cccc(NC(=O)CN2CCN(c3ccccc3OC)CC2)c1 > 76.9 µM, COC(=O)NCC(C)OC(=O)Nc1cccc(Cl)c1 (stereo not drawn) > 76.9 µM, Cc1c(C(=O)N2CCc3ccccc3C2)sc2nc(-c3ccccc3)cn12 > 76.9 µM, O=C(c1cccc(F)c1)N1CCN(c2cccc(Cl)c2)CC1 > 76.9 µM, CCN(c1cccc(C)c1)S(=O)(=O)c1cccc2nsnc12 > 76.9 µM, O=C(CN1CCC(n2nnc3cc(F)ccc32)CC1)NC1CCCCC1 > 76.9 µM, COC(=O)c1ccc(Sc2ccc(C)cc2)c(N)c1 > 76.9 µM, CCOC(=O)c1c(-c2ccc(C)o2)csc1NC(=O)CSc1nnnn1-c1ccccc1 > 76.9 µM, c1ccc2c(SCc3cn4cccnc4n3)ncnc2c1 > 76.9 µM, C=CCn1c(SCC(=O)O)nnc1-c1cccc(Cl)c1 > 76.9 µM, CCOc1ccc(OCC)c(N=c2oc3c(C)ncc(CO)c3cc2C(N)=O)c1 > 76.9 µM, CS(=O)(=O)N1CCc2cc(C(=O)O)ccc21 > 76.9 µM, Cn1c(SCC(=O)Nc2cccc3ccccc23)nc(O)cc1=O > 76.9 µM, O=C(c1cccs1)c1cn(CC(=O)N2CCc3ccccc3C2)c2ccccc12 > 76.9 µM, COCCn1c(=S)[nH]c2cc(OC)c(OC)cc2c1=O > 76.9 µM, CC(C)CC(=O)Nc1nnn(C)n1 > 76.9 µM, NC(=O)c1cc2n(n1)C(C(F)(F)F)CC(c1ccco1)N2 (stereo not drawn) > 76.9 µM, Cc1nn(C)c(C)c1NC(=O)c1ccnn1C > 76.9 µM, COc1ccc(C(c2nnnn2Cc2cccs2)N2CCN(c3ccccc3F)CC2)cc1 (stereo not drawn) > 76.9 µM, COc1ccc(C2CC(=O)NC3=C2C(=O)CCC3)cc1Cl (stereo not drawn) > 76.9 µM, CC(C)Sc1oc(-c2ccco2)nc1S(=O)(=O)c1ccc(F)cc1, Cc1cccc(Cn2c(C(C)O)nc3ccccc32)c1 (stereo not drawn) > 76.9 µM, COc1ccc(-c2nnn(CC(=O)c3ccc4c(c3)OCCO4)n2)cc1OC > 76.9 µM, CCOc1ccc(C2/C(=C(\O)c3ccc(OC)c(OC)c3)C(=O)C(=O)N2c2cc(C)on2)cc1OC (stereo not drawn) > 76.9 µM, COCCN(CC(=O)NCc1ccc(F)cc1)C(=O)CCC(=O)Nc1nccs1 > 76.9 µM, CN(C)c1ccc(/C=c2\sc3n(c2=O)CCCN=3)cc1 > 76.9 µM, CCOc1ccc(-c2nnn(CC(=O)c3cc(OC)ccc3OC)n2)cc1 > 76.9 µM, Cn1nc(C(=O)NCc2cccnc2)c2ccccc2c1=O > 76.9 µM
